According to PubChem BioAssay AID485364 (National Center for Advancing Translational Sciences (NCATS), 2010):
Hit rate of the full screen: of about 360,000 compounds, about 11,000 (3.1%) were called active. This list was built around the results that the source calls inconclusive (neither active nor inactive); the mix of calls is not that of the screen. Calls follow the shape of the dose curve; as a rule, active = well fitted inhibition curve with a large enough effect; inconclusive = small, poorly fitted or top-dose-only effect; inactive = no such curve, though single readings can be large or run the other way. No potency is given beside an inconclusive call; the fits are too rough.

Target: Schistosoma mansoni thioredoxin glutathione reductase (TGR) (UniProt Q962Y6)
Experiment: qHTS Assay for the Inhibitors of Schistosoma Mansoni Peroxiredoxins; also: nearly all actives have a fitted effect of over 60% in size
Details: purified TGR, DTNB reduction, TNB absorbance 405 nm; series mostly up to 114 µM
Procedure, shortened: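 Kinetic colorimetric format: TGR-catalysed, NADPH-driven DTNB reduction monitored via TNB absorbance. Enzyme dispensed at 20 nM; compound exposure 15 min at room temperature before reaction start.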
Potency is read from the fitted curve at half-maximal effect; tags tell the direction and shape of the fitted curve.

Row | Structure (SMILES) | Potency
1 | FC(F)(F)c1nnc(-c2ccccc2)nc1Sc1ccc(Cl)cc1 | inconclusive [inhibitor, full curve]
2 | COc1ccc([C@@H]2[C@@H]3C(=O)N(C(C)(C)C)C(=O)[C@@H]3[C@]3(CC(C)C)C(=O)N(c4ccccc4)C(=O)N23)cc1 | inactive
3 | COc1ccc(N2C(=O)CC(Sc3ccccc3C(=O)O)C2=O)c([N+](=O)[O-])c1 (centres undefined) | active: 11.2 µM
4 | CC1CCCCN1CC(=O)c1ccc2cc[nH]c2c1 (centres undefined) | active: 8.91 µM
5 | CCS(=O)(=O)c1nc(S(=O)(=O)c2ccc(Cl)cc2)c(N2CCc3ccccc3C2)s1 | inconclusive [inhibitor, partial curve]
6 | CC(NC(=O)c1ccc(OC2CCN(Cc3ccccn3)CC2)cc1)c1ccccc1 (centres undefined) | inconclusive [inhibitor, full curve, poor fit]
7 | COc1ccc(S(=O)(=O)N2CCOC23CCN(S(=O)(=O)c2cc(C)ccc2C)CC3)cc1 | inconclusive [inhibitor, partial curve]
8 | O=C(O)CN1C(=O)/C(=C\C(Br)=C\c2ccccc2)SC1=S | active: 20 µM
9 | C=CCn1c(SCC(=O)N(C)c2c(N)n(Cc3ccccc3)c(=O)[nH]c2=O)nnc1-c1ccccc1OC | inconclusive [inhibitor, full curve, poor fit]
10 | O=C(Nc1ccccc1Cl)c1ccc(-n2cccn2)c([N+](=O)[O-])c1 | inconclusive [inhibitor, partial curve]
11 | Nc1sc2c(c1C(=O)c1ccccc1)CCCC2 | inconclusive [inhibitor, single point]
12 | CCN1C(=O)[C@H]2[C@@H](c3ccc(-c4ccc(Cl)c(Cl)c4)c(OC)c3)N[C@@](C)(C(=O)OC)[C@H]2C1=O | active: 39.8 µM
13 | CCn1nnnc1SCC(=O)N1c2ccccc2Sc2ccccc21 | inconclusive [inhibitor, partial curve]
14 | CCOC(=O)[C@H]1[C@H]2COc3ccc(Br)cc3[C@@H]2N2C(=O)CN(Cc3ccco3)C(=O)[C@@]12C | active: 31.6 µM
15 | Oc1ccc(-c2csc(Nc3ncccn3)n2)cc1O | inconclusive [inhibitor, partial curve]
16 | COc1ccc(C2=NO[C@@H]3C(=O)N(c4ccc(C)cc4C)C(=O)[C@H]23)cc1OC | active: 11.2 µM
17 | CC(C)CC(=O)NC(=S)NCCc1ccccc1 | inconclusive [inhibitor, partial curve, poor fit]
18 | CCCCCOP(=O)(OCCCCC)C1(NS(=O)(=O)c2ccccc2)C=CC(=O)c2ccccc21 (centres undefined) | inconclusive [inhibitor, single point]
19 | CC(C)NS(=O)(=O)c1ccc(CCC(=O)NCc2ccccn2)cc1 | active: 100 µM
20 | COc1cccc2c1Oc1ncccc1N(C(=O)CCC(=O)NCc1ccc(N(C)C)cc1)C2 | inconclusive [inhibitor, single point]
21 | CC(C)[C@H](NC(=O)[C@H](CC(=O)O)NC(=O)[C@H](CCCCN)NC(=O)[C@@H](N)CCCN=C(N)N)C(=O)N[C@@H](Cc1ccc(O)cc1)C(=O)O | inactive
22 | COc1ccccc1N1CCN(C(=O)CCN2C(=O)c3cccc4cccc(c34)C2=O)CC1 | inconclusive [inhibitor, single point]

Row | Structure (SMILES) | Potency
23 | COC(=O)c1nn(-c2ccc(Cl)cc2)c(=O)cc1Sc1ccccn1 | inconclusive [inhibitor, single point]
24 | COCCCN(C(=O)c1cc(-c2ccco2)nc2ccccc12)c1c(N)n(Cc2ccccc2)c(=O)[nH]c1=O | active: 15.8 µM
25 | COc1cc(C)c(CNc2ccc(OC)c(OC)c2)cc1C | inconclusive [inhibitor, partial curve]
26 | CN(C)C(CNC(=O)c1coc2ccccc2c1=O)c1ccccc1 (centres undefined) | inactive
27 | Cc1nn(Cc2c(Cl)cccc2Cl)c(C)c1C(=O)NCc1ccc(C)n1C | inconclusive [inhibitor, partial curve]
28 | COC(=O)c1ccc(Nc2nnc(-c3ccc(C)c(S(=O)(=O)NCC4CCCO4)c3)c3ccccc23)cc1 (centres undefined) | inactive
29 | COC(=O)c1sccc1NC(=S)N1CCN(c2ccccc2)CC1 | inconclusive [inhibitor, single point]
30 | Cc1c(Cl)c(-c2n[nH]c(=S)n2CC(C)C)nn1C | inactive
31 | O=C(NCCCc1nc2ccccc2n1Cc1cccc(Cl)c1)c1ccco1 | inactive
32 | CC1Cc2ccccc2N1C(=O)COC(=O)Cn1nnc(-c2ccccc2)n1 (centres undefined) | inconclusive [inhibitor, partial curve]
33 | COc1cc(C(C(=O)NCc2ccccc2)N(C(=O)c2snc(C(N)=O)c2N)C2CCCC2)cc(OC)c1OC (centres undefined) | inactive
34 | Cc1[nH]nc2c1C(c1ccc(Cl)cc1)C(C#N)=C(N)O2 (centres undefined) | inconclusive [inhibitor, partial curve]
35 | CCOc1nc2cnccc2n(CC(=O)Nc2c(C)cccc2CC)c1=O | inactive
36 | N#CC(Br)Br | active: 50.1 µM
37 | Cc1ccc(C(=O)NC(C)c2ccccc2)o1 (centres undefined) | inconclusive [inhibitor, full curve, poor fit]
38 | CCCCNC(=S)NC(=O)c1ccc([N+](=O)[O-])cc1 | inconclusive [inhibitor, single point]
39 | CCOC(=O)c1ccc2nc(NC(=O)C(C)C)sc2c1 | inactive
40 | O=C(Nc1cccnc1)c1ccc2snnc2c1 | inactive
41 | Fc1cccc(/C=C2\CCCC3=C2NC(=S)NC3c2cccc(F)c2)c1 (centres undefined) | active: 20 µM
42 | CC(C)OCCCNCc1cccs1 | inconclusive [inhibitor, partial curve]
43 | COc1cccc(N2CCN(c3c4c(nc5nncn35)CCC4)CC2)c1 | inconclusive [inhibitor, partial curve]
44 | COc1cc(C(=O)N/N=C/c2ccccn2)cc(OC)c1OC | inconclusive [inhibitor, single point]
